Self-cleavage data for 112 variants are collected here from the RNAGym collection of RNA variant scans (doi:10.7554/elife.90254).

The source gives no read counts; variants with many changes may rest on few reads.

Sequences and labels used below:
B1: LINE1-mini (parent)
chain: GGCAGAGCUCAACACAGCGUGGCAAAGUGGCUGUGGCUAGACUGCC

In the data set the parent is B1. Nature of the data set: self-cleavage, relative activity (ratio to wild type); higher = more cleavage; in vitro, sequencing; the parent is a self-cleaving ribozyme.
GGCAGAGCUCAUCACAGUGGGACAAAGUGACUGUGGCUAGCCUGCC: the self-cleavage came out at 0.
For GGCACGGCUCAACACAGCGUGGCAAAGUCGCUGUGGCUAGACUGAC, the self-cleavage is 0.06.
In the case of GGAAGAGCUCUACACAGCGUGGCAAAGUGGCUGUGUCUGGACUGCC, the self-cleavage amounted to 0.02.
Then GGCAGAGCUAAAAACAGCGCGGCAAAGUGGCUGUGGCUAGACUGCC, with 0; and GGCUGAGCUGAUCUCAGCGUGGCGAAGUGGCUGUAGCUAGACUGCC, with 0.03.
Regarding GGCAGAGCUCCACUCAGCGUGGCAAAGUGGCUGUUGCUAGACUGCC, the self-cleavage turned out to be 0.01.
In the case of GGCAGAGUUCAACCCAGCGUGCCAAAGUGGCUGUGGCUAGACGGCC, the self-cleavage was 0.
Take GGCAGAGCUCAACACAGCGUUGUUGAGUGGCUGUGGCUAGACUGCC: the self-cleavage came out at 0.06.
Regarding GGCAUAGCUCACCACAGCGUGGCAAAGUGGCUGUGGCUAGAAUGCC, the self-cleavage came out at 0.
As to GGCAUUGCUCAACAAAACGUGGCAAAGUGGCUGUGGCUAUACUGCC, the self-cleavage was determined as 0.02.
Then GGCAGAGCUCAAGACAGCAUGGCAAGGUGGCUGUGGCUAGACUGCC, with 0.04; and GGCAGAGGUCAACACAGCUUGGCAAAGGGGUUGUGGCUAGACUGCC, with 0.04; and GUCGGAGCUCAACACAGCGUGGCAACGUGCCUGUGGUGAGACUGCC, with 0.
For GGCAGAGCUCAACAGAGCGUGGCAAAUUGCCUGUGGCUAGACUGCC, the self-cleavage is 0.06.
GGCACUGCUCAACACAGCGUGGUAAAGUGGCUGUGGCUAGACUGCC: the self-cleavage is 0.08.
As to UGCAGAGCUCAACAUAGCGUGGCAAAGUCGGUGUGGCUAGACUGCC, the self-cleavage was found to be 0.08.
The value for GGCAGAGGUCAACACAGCGUCGCUAAGUGGCUGUAGCUAGACUGCC was 0.05; that for CGCAGAGCUCAACACAGCGUGUCAAAGUGCCUGUGGCUAGGCUGCC was 0.03; that for GACAGAGCUCAACACAGCGUGGCAAAGUUGCUGUGGCUUGACUGCC was 0.73.
Turning to GGCAGAUCGCAACACAGCGUGGCAAAGUGGCGGUGACUAGGCUGCC, the self-cleavage was 0.
The value for GGCAGAGAUCAUCACAGCGUGGCAAAGUGGCUGUGUCUAGACUGCC was 0.22.
As for GGAAGAGCUCAACACAGCGUGGCAAAACGGCUGUGGCUAGACGCCC, the self-cleavage was 0.11.
As for GGCAGAGCGCAACACACGGUGGCAAAGUGGCUGUGGCUAGACUGCC, the self-cleavage is 0.06.
With GGCAGAGCCCGACACAGCGUGGCAUAGUGUCUGUGGCUAGACUGCC, the self-cleavage was 0.03.
In the case of GGCUGUGCUCAACACAGCGUGGCCCAGUGGCUGUGGCUAGACUGCC, the self-cleavage came out at 0.
Then GGCAGAGCUCUACACAGCGUGGCCAAGUGGCUAUGGCUAGACUGUC, with 0.
As for GACAGAGCGCAACACAGAGUGGCAAAGUGGAUGUGGCUAGACUGCC, the self-cleavage is 0.15.
For the variant UGCAGAGCUCAAAACGCCGUGGCAAAGUGGCUGUGGCUAGACUGCC, the self-cleavage was 0.07.
Then GGCAGAGCUCAACACAGAGUGGCAAAUUUGCUGUGUCUAGAAUGCC, with 0; and GCCAGAGCUCAACACAGCUUGGCAAAGUGGCUGUGGCUAAACGGCA, with 0.01.
Regarding GGCAAAGCUCCACACAGCGUGGCAAGGUGGCUGUGGCUAGACUUCC, the self-cleavage was found to be 0.03.
Take UGCACAGCUCAACACAGCGUCCCAAAGUCGCUGUGGCUAGACUGCA: the self-cleavage was 0.02.
As for GGAAGAGCCCAACACAGCGUGGCAAAGUGGCUGUGGCAAUACUGCC, the self-cleavage came out at 0.05.
Then GGCAGAGCUCAAUACAGCGUUGCAGAGUGGCUGUGGCUAGACUGCC, with 0.13; and GGGAGAGCUCAACACAGCGUCGCGAAGUGGCUGUGGCUAGACUGCC, with 0.06; and GGCAGAGCCCAACGCAGCGUGGCAAAGUGGCUGUGGUUAGAAUGAC, with 0.
Take GGCAGAGCUCAAGACAGUGUGGCAAAGUGGCUGUGGCUUGACUUCC: the self-cleavage turned out to be 0.08.
Turning to GGUAGAGCUCAACACAGCGUGGCAUAGUGGCUGUGGCAAGACUGCC, the self-cleavage is 0.11.
Take GGAAGUGCUCAACAAAGCGUGGCAAAGUGGCUGUGGCUAGAUUGGA: the self-cleavage was determined as 0.09.
As to GGCAGAGAUCAACAAAGCGUGGCAAAGUGGUUAUGGCUAGACUGCC, the self-cleavage turned out to be 0.28.
With GUAAGAGCUCAACACAGCGUGGCAAAGUGGCUGAGGCUUGACUGCC, the self-cleavage is 0.
Then GGCAGAGCUAAACACAGCGUGACAAAUUGGCUGUGGCUAGACUCCC, with 0.02; and GGCAGAGCUCAACACUGCGUGGCAAAGAGGCUGAGGCUAGACUGCG, with 0.01; and GCCAGAGCUCAACACAGCGUGGCAAGGUGGCUGUGCCUAGACUGCC, with 0.23.
For GGCAGAGAUCAAAACAGAGUGGCAAAGUGGCUAUGGCUAGACUGCC, the self-cleavage was 0.14.
Then GACAAAGCUCAACACAGCGUGGCGAAGUGGCUGUUGCUAGACUGCC, with 0.21; and GGCAGAGCUCAACACAGCGUGGCACGGUGGCUGUGUCUAGAUUUCC, with 0.08.
The value for GGCAGAGCUCAACACAGCGUGGCAAAGUCGCGGUGUCUGGACUGCC was 0; that for GGCAGAGCUCAACACAGCGUGCCAAUGUGGCUAUGGCUAGACUGCC was 0.19.
As for GGCUGAGCUCAACACAGAGUGUCAAAGUGGCUGUGGCUAGAAUGCC, the self-cleavage was 0.11.
On to GGUAGAGCUCAACACGGCUUAGCUAAGUGGCUGUGGCUAGAGUGCC, for which the self-cleavage was 0.25.
As to GGCGGAGCUCAACACAGCGCGGCAAAGUGCCUGUGGCUAGACUGCC, the self-cleavage turned out to be 0.07.
In the case of GGCAGAGCUCAACCCAGAGUGGCAAACUGGCUGUGGCUAGACUGCA, the self-cleavage is 0.11.
Take GGCAGGCCUCAAGACAGCGUGGCAAAGUGGCUGUGGCUAGACUGCC: the self-cleavage worked out at 0.12.
Turning to GGCAGAGCUCAACACAGCGAGGCAAGGUAGCUGUGGCUAGACAGGC, the self-cleavage is 0.01.
Take GGCUGAGCUCAACACAGCGUGGCAAAGUGGCGGUGGCUAGAAUGCC: the self-cleavage amounted to 0.03.
In the case of GGCAGAGCUGAACGCAGCGUGGCAAAGCGGUUGUGGCUAGACUGUC, the self-cleavage stood at 0.01.
Take GGCAGAGCUCAACACAGUGUGGCAAAGUUCCUGUGGCUAGACUGUC: the self-cleavage came to 0.36.
GGCAGAGCUCUACACAGCGCGGCAAAGCGGCUGUGGCAAGACUGCC: the self-cleavage worked out at 0.01.
Consider GGCAGAGCACAACACAGCGUGGCAAAGUGCCUGUGUAUAGACUGCC, for which the self-cleavage is 0.37.
Take GGCAGAUCUCAUGACAGAAUGGCAAACUGGCUGUGGCUAGACUGCC: the self-cleavage amounted to 0.29.
As to GGCAGGGCUCAACACAGCGUGGCAAAGCGGCUGUGGCUUGACUGCC, the self-cleavage is 0.07.
As to CGCAGAGCUCAACACAGCGUGGCCGAGAGGCUGUGGCUAGACGGCC, the self-cleavage amounted to 0.02.
As to GGCAGAACUCAACACACUGUGCCAAAGUGGCUGUGGCUAGACUGCC, the self-cleavage stood at 0.09.
Take GGCCGAGCUCAACACAGCGAGGCAAAGUGGCUGUGGCUAGACUGGC: the self-cleavage was 0.02.
The value for GGCAGAGCUCAACACAGAUUGGCUAACUGGCUGUGGCUAGACGGCC was 0.08; that for GGCAGAGCUCAACACAGCGAGGUAAAGUGGCUGUGAUUAGACUGCC was 0.02.
GGCAGAGCGGAACACAGCGUGGCAAAGUGGGUGUGGCUAGACUGCC: the self-cleavage was 0.01.
Regarding GGCAGAGCUCAACACAGCGUUGCAGAGUUGGUGUUGCUCGACUGCC, the self-cleavage was 0.04.
As for GGCAUAGCUCAACACAGCGUGGCAAGAGGACUGUGGCUAGACUGCC, the self-cleavage turned out to be 0.09.
With GGCAGAGCUCAACACACCGCGGCAAAGUGGCUGUGGCUCGACUGCC, the self-cleavage worked out at 0.02.
As for AGCAGAGCUCAACACAGCGUGGCAUAGGGGCUGUGGCUAGAGUGCC, the self-cleavage amounted to 0.01.
As to GGCAGAGCUCUAUACAGCGUGGUAAAGUGGCUGUGGCUAGAAUGGC, the self-cleavage was found to be 0.02.
Turning to GGCAGAGCUCAACAAAGCGUGGCAAAGGGGAUGUGGCUAGACUGCC, the self-cleavage came to 0.05.
Take GGCAGGGCUCAACACAACGUGGCAAAGUGGCUGUAGCUAGACUGCU: the self-cleavage is 0.04.
GGCAGAGCUUAACACAGCGUGGCAUAGUGGCCGUGGGUAGACUGCC: the self-cleavage is 0.01.
Consider GGCGGAGCUCAAUACAGCGUGGCAAAGUGGCUGGGGCAAGACUGCC, for which the self-cleavage stood at 0.18.
In the case of GGCAGAGCUUAACACAGCGUGGCAGAUUGGCUGUGGCUAGACUGCC, the self-cleavage stood at 0.3.
The value for AGUAGAGCUCAACACAGCGUGGCAAAGGGGCUGUGGCUAGACUGCC was 0.47.
With UGCAGCGCUAGAGACAGCGUGGCAAAGUUGCUGUGGCUAGACUGCC, the self-cleavage was 0.01.
For GGCAGAGCUGAACACAGCGUGUCAAAGUGGCCUUGGCUAGACUGCC, the self-cleavage is 0.01.
As for GGCAGAUCUCAACACAGCAUGGCAAAGUGGCUGUGACUUGACUGCC, the self-cleavage was found to be 0.06.
Then GGCAGAGCGCAACACGGUGUGGCAAAGUGGCUGUGGCUUGACUGCC, with 0.08; and GGCAGAGGUCAAAACUGCGUGCCACAGUGGCUGUGGAUAGACUGCC, with 0.01; and GGCAGAGCUUCACACAGCAUGGCAAAGUGGCUGUGGCUAGACUGCC, with 0.12.
GGCAGAGUUCAACACAGCGUGGUAAAGUGGCUGUGAUUAGACUGCC: the self-cleavage is 0.04.
Then GGCAUAGCUUAACACAGCUUAGCAAAGUGGCUGUGGCUAGACUGCC, with 0.05; and GGCAGAUCUCAACACAACGUGGCAAAAUGGCUGUGGCUAGACUGCC, with 0.05.
For the variant GGCAGAGCUCAUCACAGCGUGUCAAAGUGGCUGUGGCUAGACUGUC, the self-cleavage came to 0.2.
On to GGCAGAGCUCAACACGGCGUGGCAAAGUGGCUGUCGCUAGUCUGCC, for which the self-cleavage is 0.01.
Take GGCAGAGCUCAAUACAUCGUGGCAAAGUGACUGUGGCUAGAUUGCU: the self-cleavage was determined as 0.16.
Regarding AGCAGAGCUCAACACACCGAGGCAAAGUCGCGGUGGCUAUACUGCC, the self-cleavage is 0.01.
Consider GGGAGAGCUCAACACAGCGGGGCAAAGUGGCUGUGGCUAGAAAGCC, for which the self-cleavage was 0.04.
Regarding GCCAGAGCUCCACACAGCGUCGCAAAGUGGCUGUCGCUAGACUGCC, the self-cleavage came out at 0.04.
As for GGCACAGGUCAACCCAGCGUGUCAAGGUGGCUGUGGCUUGAAUGCC, the self-cleavage worked out at 0.02.
Take GGCAGAGCUCAAGAUAGCGUGGAAAAGUGGCUGUGGCUAUACUGCC: the self-cleavage was determined as 0.08.
Consider GGCAGCGCUCAACACAGCGUGUUAAAGUGGCUGUGGCUAGACUAAC, for which the self-cleavage is 0.03.
On to GGCAGAACUCCACACAGCGUGGCAAAGUGGCUGUGGCUAUACUUCC, for which the self-cleavage stood at 0.02.
On to GGCAGAGCUCAACACAGCGUGGCUAAGUGGUUGUGGCUAGACUUCC, for which the self-cleavage was 0.04.
For the variant GGCUGAGCUCAACACAGCGUGGCAAAGCGUCUGUGGAAAGAUUGCC, the self-cleavage was found to be 0.04.
As to GGCAGAGCGCAACACAGCGUGGUAAAGUGGCCGUGGCUAGACUGCC, the self-cleavage was 0.08.
In the case of GGGAGAGCUCAAAACAGCGUGGCAAAGUGGCUGUGGCGAGUCUGUA, the self-cleavage was determined as 0.04.
Consider GGCAGGACUCAACACAGCGUGGCAAAGUGGCUGUGGCUGGACUGCC, for which the self-cleavage worked out at 0.04.
As to GGCAGCGCUCAACACAGCUUGGCAAAGUGGCUGUGGCAAGACUGCC, the self-cleavage stood at 0.08.
Take CGCAGAGCUCAACACACAGUGGCAAAGUGGCUGUGGCUGGACUGCC: the self-cleavage was 0.01.
The value for GGCAGAGCUUCACACAGCGUGGCAUAGUGGCUGUGGCUAGACUGCC was 0.04.
With GGCAGAGCUCAACAAAGCGUGGCAAAGUGCCUGUGGUUAGACUGCC, the self-cleavage was found to be 0.03.
For the variant GGCAGAGCUCAACACAGCGUAUCAAACUGCCUGUGGCUAGACUGCC, the self-cleavage was 1.29.
As for GGCAGAGCUCAACACAGCGUGGCAAAGUGGCUGUGGCUUGACUGUU, the self-cleavage was 0.16.
For GGCACAGCUCAACACAGCGUGGCAAAAUGGCUGUCGCUAUACUACC, the self-cleavage was 0.04.
Take GGAAGAGCUCAACACAGCGUGGCAAAGUGGCUGUAGCUAGACAGCC: the self-cleavage came to 0.46.
GGCAGAGCUCAAGAUAGCGUGGCAAAGUGGCUGUGGCAAGACUGCC: the self-cleavage amounted to 0.2.
